Source: the supplement of paper PMC4166925
± gives the standard deviation of the averaged measurements. In all, about 33,000 sequences were measured (“E-score (dimensionless, -0.5 to 0.5)”: median about -0.046, highest 2% from about 0.36 on). The list shows a part of the results.

test system: T1, SpTbr T-box DNA-binding domain (GST fusion); assay: PBM E-score of 8-mer (E-score (dimensionless, -0.5 to 0.5)); Tbr is Tbrain of the sea star Patiria miniata (Pm) or the sea urchin Strongylocentrotus purpuratus (Sp); higher = stronger binding preference; most listed sequences are background and not binding sites; settings: the construct has about 5 more residues each side
T1 sequence: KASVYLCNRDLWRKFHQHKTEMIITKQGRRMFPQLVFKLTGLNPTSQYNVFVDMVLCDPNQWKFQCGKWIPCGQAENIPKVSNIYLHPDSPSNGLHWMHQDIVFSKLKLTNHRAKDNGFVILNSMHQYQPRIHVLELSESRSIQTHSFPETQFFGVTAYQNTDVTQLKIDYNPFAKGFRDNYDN
Method in brief: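 Universal Agilent oligonucleotide arrays, made double-stranded by primer extension, were incubated with 200 nM GST-fused Tbr T-box DNA-binding domain in PBS (pH 7.5). The protein was expressed in BL21 E. coli at 20 °C and purified by glutathione affinity chromatography. After scanning and quantification, the Universal PBM Analysis Suite assigned an enrichment E-score to each ungapped 8-mer, averaged over duplicate arrays.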

Sequence	PBM E-score of 8-mer
AATCGGAA	0.122 ± 0.024
GGGGAGGA	-0.163 ± 0.019
AGTAATGG	-0.0889 ± 0.056
ATGGTTGG	-0.0578 ± 0.074
AGGACCCG	-0.0395 ± 0.012
ATTTCGTG	0.0767 ± 0.045
GAACCTTA	-0.0824 ± 0.12
CTAACAGC	0.148 ± 0.015
ATAGCCGA	-0.123 ± 0.032
TCGTCCCA	-0.261 ± 0.0059
AACGCAGT	-0.0291 ± 0.029
ATTTGTAA	-0.0173 ± 0.028
CAGCCCTA	-0.17 ± 0.042
AATATATA	-0.0588 ± 0.083
GGGTTCAC	0.233 ± 0.072
ATGCTGTA	-0.242 ± 0.073
GAGTATCC	-0.216 ± 0.031
CATAGACC	-0.207 ± 0.053
GGGATCTA	-0.245 ± 0.029
ATGATCAG	-0.227 ± 0.02
GAGTATCA	-0.207 ± 0.063
TCGCATCA	0.202 ± 0.0061
CAGTAGTA	-0.0575 ± 0.012
ATGTGAAA	0.263 ± 0.03
ACCACCAA	0.0261 ± 0.018

Sequence	PBM E-score of 8-mer
AAGTGCTC	0.118 ± 0.051
CTCAGTGA	-0.103 ± 0.036
GCTGTAGA	-0.166 ± 0.067
ACAATTCT	0.0549 ± 0.028
ATCCGCAT	-0.148 ± 0.045
CTAGAACC	-0.0393 ± 0.046
GGGCCGAA	-0.138 ± 0.0027
AAACTTGT	0.189 ± 0.092
CGATCTCA	0.163 ± 0.012
CCCCGAGG	-0.235 ± 0.022
CGGTTAGA	-0.177 ± 0.06
AACGCCCG	0.0512 ± 0.098
CATGAAGC	-0.112 ± 0.013
ACGTTCTG	-0.0801 ± 0.023
ACATTGCA	0.0438 ± 0.031
TATGTTGA	-0.0189 ± 0.057
CCAGGACA	0.0415 ± 0.071
GACGTCCA	-0.0714 ± 0.046
GATGGTCC	-0.321 ± 0.041
ACGCAATA	-0.0451 ± 0.032
GCTCGAAC	-0.0832 ± 0.0097
AGTCAAGG	-0.134 ± 0.031
ACACTTAC	0.4 ± 0.024
GGCTCCAC	-0.081 ± 0.098
GCGAGGAA	0.221 ± 0.048

Sequence	PBM E-score of 8-mer
AACAGAGG	-0.131 ± 0.024
ACTCACAC	0.469 ± 0.0082
GTCCAAAC	-0.0101 ± 0.016
GTACCATA	-0.259 ± 0.012
AGAGGTTG	0.0805 ± 0.04
AAATAGAC	-0.109 ± 0.071
CGTACGTC	-0.0758 ± 0.019
ATAAAGCG	0.109 ± 0.016
AGTTCGCG	0.296 ± 0.038
AAGCAACA	0.107 ± 0.0079
CAGGGTGC	0.211 ± 0.027
CCGTCCGC	0.00261 ± 0.12
GATGAGAA	-0.0183 ± 0.022
GGCCCCGA	-0.356 ± 0.019
GAACCAGA	-0.05872 ± 0.00022
AGATAGAG	-0.0538 ± 0.0031
CAAGTTCC	-0.0186 ± 0.026
ACGCATCA	0.163 ± 0.073
CAGTTGAA	0.046 ± 0.073
ACTGTAAC	0.124 ± 0.0017
AAGTAGCG	0.0931 ± 0.034
CGGTCAAG	-0.26 ± 0.036
AGTTTTAC	-0.0655 ± 0.027
CTTGACCA	-0.0389 ± 0.05
CGCGTTGC	0.2402 ± 0.0013

Sequence	PBM E-score of 8-mer
ATGGCACC	0.3573 ± 0.0028
CGGGTGCC	0.18 ± 0.0043
TGTTTGAA	0.128 ± 0.084
AGAATTCG	-0.111 ± 0.014
GGGGGTCA	0.0604 ± 0.0046
ACGTGGTG	0.191 ± 0.038
CGGCTAAA	-0.0102 ± 0.0022
GACGCGTC	0.316 ± 0.017
AAAAAGAT	-0.246 ± 0.081
CTCCCCGC	0.00243 ± 0.072
AGGAAGTA	-0.176 ± 0.044
AACATGCG	0.166 ± 0.015
CCTAACGA	-0.0256 ± 0.021
GTTCCGTA	-0.18 ± 0.034
ACTAGAAG	0.00416 ± 0.045
AGGATGCG	0.0581 ± 0.018
AAACACTA	0.0817 ± 0.032
GTATACCA	0.0254 ± 0.057
AAAAGGGA	-0.296 ± 0.049
CGCGTTGA	0.201 ± 0.0023
CCGAAGAC	-0.145 ± 0.042
CTCTAGCC	0.0654 ± 0.052
ATCCAGGC	-0.1996 ± 0.00042
GGAAGCCC	-0.222 ± 0.054
CTCGCCGC	0.206 ± 0.036

Sequence	PBM E-score of 8-mer
CGTAGAGA	-0.122 ± 0.041
AACCCGAG	-0.0736 ± 0.019
CGATATAC	-0.128 ± 0.051
GGTCCCTA	-0.213 ± 0.07
ACCGGAGA	0.0981 ± 0.047
GCCCTCAA	-0.204 ± 0.0095
CTGTCGTA	-0.052 ± 0.067
GTAATGAC	0.0406 ± 0.034
GTTTTACA	0.0296 ± 0.0089
CTCTATTC	-0.155 ± 0.023
ATCCACGC	0.128 ± 0.052
CACTGCGA	0.0166 ± 0.0051
ACGTGCTA	0.359 ± 0.0084
CTTCTCAA	0.0891 ± 0.045
AGGAGACA	-0.0352 ± 0.023
CTGGGTTC	-0.241 ± 0.068
GTAAGAGA	-0.143 ± 0.02
ACCTTTAT	0.0881 ± 0.012
GCGTACCC	-0.0518 ± 0.0098
CAATTCGC	0.244 ± 0.0073
GCATCGGC	-0.332 ± 0.039
GGCGGAGA	0.0127 ± 0.0063
GTCTAAGA	-0.0378 ± 0.089
GTAGGTTA	-0.184 ± 0.0098
TATTGCGA	0.103 ± 0.023

Sequence	PBM E-score of 8-mer
CTGGTATA	-0.203 ± 0.012
TCCCGCCA	0.073 ± 0.025
GGCTTATA	-0.269 ± 0.071
ACCGAGTA	-0.0637 ± 0.071
ATTGGGCG	0.0176 ± 0.068
AATCACGC	0.321 ± 0.015
CTATTTAC	-0.0783 ± 0.043
ATATATTG	-0.197 ± 0.0055
GAGCTGAA	-0.146 ± 0.045
CGTCTCAC	0.272 ± 0.016
AATGCAAG	-0.259 ± 0.011
CAATCCGC	-0.0196 ± 0.012
CGAGAGAC	-0.166 ± 0.051
GCGAGTGA	0.18 ± 0.032
AACATCAA	-0.0537 ± 0.037
TGGTAAAA	-0.0951 ± 0.025
ACTAAGAT	0.093 ± 0.053
CGTAGGTC	-0.24 ± 0.02
ATAGAGGG	-0.184 ± 0.031
ACTTCTCC	-0.0458 ± 0.018
ATACCTAT	-0.0845 ± 0.068
CAAGCCTG	-0.0299 ± 0.016
ATGTTGCC	-0.0112 ± 0.089
GCGTTCAC	0.239 ± 0.011
ACTACAGT	-0.139 ± 0.0078

Sequence	PBM E-score of 8-mer
TCATGTAA	-0.102 ± 0.042
AGCGGCCC	-0.273 ± 0.1
AAATGCGT	0.0194 ± 0.0015
GAGTCTGA	-0.228 ± 0.03
ATTTGTAC	-0.0828 ± 0.0039
CATAGACA	-0.149 ± 0.015
AAGATTAA	-0.0784 ± 0.0081
GAAACCTA	0.0218 ± 0.0061
GACCCTTA	-0.0355 ± 0.033
CATTCCTC	-0.0883 ± 0.013
AAGCTACA	0.00216 ± 0.035
ATGCTTAA	-0.224 ± 0.021
CATCACGC	0.263 ± 0.021
ATTAGGTC	-0.0878 ± 0.021
AGCACTTA	0.242 ± 0.026
GTTGTTCA	0.0496 ± 0.026
TAGTACTA	-0.189 ± 0.057
GAATTAAA	-0.0537 ± 0.037
ACCGCCGG	0.0158 ± 0.017
CTACGTTA	-0.186 ± 0.047
ATTATTAG	-0.0717 ± 0.017
GGTCTCAA	-0.0536 ± 0.098
